The results in this text go back to the supplement of paper PMC12632987.

Over roughly 4,500 sequences, “median log2 fold change of GCK-ALFA target abundance (FLAG IP / Myc IP barcode read proportion)” has its median near 0.078; the lowest 2% begin near -0.6. The list shows a part of the results.

Sequences and labels used below:
B1: GBRAP_9_7185 (protein)
chain: MQEIKEKILKEVKEHLALIVEVAPPEHRELVTAESDKVLKELEKAVEDPNTTLEELLEKLEKLFDAFVALMAAHVPPEVARMIEAEAGTAILEAEEIIEE
B2: GBRAP_80_6774 (protein)
chain: ALEEAEKAIEEVEKLDPELAERLRKILKRLLEQGASEETLKAFAELAKAVAEALKLGLRETAREAVEEAEEAAELEDEEEITAMLRGIAGEVLMEVEEKE
B3: GBRAP_52_6236 (protein)
chain: MEEEQRRKAEEIVALVKAGDREGARALARELARTLNREEAELFIEEFARLAREQPAEDIDAVWEAAEIVAEAFEEAGWPDVLVDDLEARVAAALVEVERR
B4: GBRAP_78_6612 (protein)
chain: ETKEEILKLLEEAEELARKVRELAPEVADEANEVAVLLGTAIYFVDTGSESKEEILETLEEAKKAAEELEKLVKGAEEKVQKLVKELKKKIEEAIKLLKK
B5: GBRAP_125_3144 (protein)
chain: RREELLRLAEALARAFGYSEEEIAEIRELAEAGDPAQTIVAIALAEDWEELAAAAEEVLPRLTAEEVAELADLAEALLDAPREEFAAAVLARLRELGARL
B6: GBRAP_57_6454 (protein)
chain: MSRLEKVEEKAEKTKKLIDENAPKEEIEESIRELLELLSEEVLLDVALILDPTTDPNFSKEELIEKIVEIIMEALEKEGKEKAYKYIDLIEGQAEMDEIE
B7: GBRAP_64_6497 (protein)
chain: LEELKKELEEELEKAIEHLRKAAELDPENREKYLELAERVEESKKLSVEERLDVLAEIAKEVNELLKEHKDDPEVADELSEALYHISAAAALAAELEEEL
B8: GBRAP_78_6742 (protein)
chain: KAEEVIDETLEVIDRALRALSSLPIEKVGDAMLHLLDAAEALEEAEEEGFPLEKIEEAAKHLGKAIEIIEEKGIELPEEVLEALKKAHEKLKKLAEEKKK
B9: GBRAP_160_3980 (protein)
chain: SEEIEKLKKEIKEIFEEAKEMIKGQSFEERLAIVSVAVGEIILLLEEDPNTSDETVEKVDEIGDELIEYLEENPDLTDEEIEELIEEALKKILEVIDEDA
B10: GBRAP_160_4384 (protein)
chain: SAALAALAAEIEALRAEFVAEAKDLNTAETRTLALGVLAEVAALVWENEAVSEATRDQIMAIIDAAEAELRANADAPPAEIVAITTAAFDKIIALVRAEA
B11: GBRAP_160_4728 (protein)
chain: EERIKEFVEEFREKFLETIELSKDESKEEQNALFEGTAGEILMDAFEEPFLSDEQEDVVAEILDELVEELKKNWDASEEEKKKIVDEKMEELLEKLLELE
B12: GBRAP_74_6553 (protein)
chain: SAALKKEIDAAAKAGDADKLIKLARKAVKEGDIDVAVHALGQLAKLAVKKAKAGDYDELDKLIDAIVEILEKVPDEALTDETWKAIAAAIKAAIEAEKAR
B13: GBRAP_160_3968 (protein)
chain: MEEVEKLKEEIDEIFDETIEMIEGESHEERLTIIRVAVGEVILLASESPLVSDETEEEIAKIGDELVATVEANPDLTEEEIKELIEEAREKIKEVIDKEF
B14: GBRAP_78_6640 (protein)
chain: SIKEKLEEALDLVDEAAKKALTLPEEISNELLYHLVDAASDIEEAIENGGDLEEVEEALKHVEEALKIIKKHNDPELEELKKLVEKAKELLKEVIKELKE
B15: GBRAP_160_4413 (protein)
chain: SALREEVARLFDELEAAALELREEGRREEAIAEVRVGAGEILLLVDEDPRVSDETAERVDAVLDALVATVEANPDMSPEELAALIAAARDEVLAILEEGL
B16: GBRAP_14_3883 (protein)
chain: EEKLQKALKEAEKKFEKALKEAKKAGLEEEAAKIEKKLKEELKKAKEKGDLAAAVIAVARATAELEGAIWMKTEGWSEAEAAAGVRTETANAEYEVDELK
B17: GBRAP_52_5965 (protein)
chain: MEEKMKELLDRALELLKAGDLEGAEKLLREIVETLNDEELELLGKVLVERIKESDLETAELLLELAILLADELEEAGRDERIASDLLGNAAAAAYALEQK
B18: GBRAP_128_3428 (protein)
chain: STEEIVEEVKELLEEMLTADEETQREIAEEIFDKIKEADLETAEKIAEVILEMLPKFTAEQLDILADVGREKLPELTPEKQEILAEVIVAALNRAEELEE
B19: GBRAP_184_5083 (protein)
chain: KVYEAHIEAETEEELLAKLDEVLEAAAKEKANLIVLVDAKGLDVELAVKLIERVGAAKAAGKVPEATIGFREEFTEEEVDRIVAAADAAGVRVVLPLKEE
B20: GBRAP_52_6270 (protein)
chain: MEEEAERLAEEFIRTALEGTEEEVKKFAKEVVETKSQELIALMLEIVVEKAEELDAEELERLLDAFLILEDELEKAGKDTLPAEDAAARLAKLHMEKLKE
B21: GBRAP_160_3972 (protein)
chain: SEEIEELKEEIEEIFEEAKELIEGETFEERLTIVRVAVGEVILLVDSSPLISDETEDEVAEIGDELVERLDANPELTEEEIKALIEEALERIKEVIEKDA
B22: GBRAP_160_4507 (protein)
chain: SEKYKEAAEVAKEAAEFIKEELETLSKEELAVVVAGEAGRVILEADELGVLSDEELDEFAKKSDELVKKILEGDEEEAKEAAKEAIKMFEELAKKLEKKA
B23: GBRAP_11_2708 (protein)
chain: KKEKILKLAEKAEELAKKIEKLIKEGPKKEELEKLLKEVKELAKEAKELGLDEAVVKTLEIAAEELKKAIEDPKTAKEHLKNALAAVRVAAGLILLEAEE
B24: GBRAP_57_6464 (protein)
chain: MSPLEKALEHFEKAIKLIEEGASLEEILEEVEKGLEELDHTLLLDILLLLDPSARSDLSREELRERLLELVRRYLEEKGREEALKALKLMAGQVEMALTE
B25: GBRAP_184_5126 (protein)
chain: TLVRRSVEGENAEELIEKARAVVEEAAAAGARLLLSVFAENMSVEEIIEVIKALGELKREHPQVEVILVVENELSEEEIDKVVKAADEAGVRVVLAIPEE
B26: GBRAP_160_4473 (protein)
chain: MEKVKKAAEDLRKDVEEELKKLADESPEQIATGAAVEVGSSLLEWSEKGLITDEQEDILAEAMDKILELGKTKKDASPEEIIKEIKKIVDEAVKKILESA
B27: GBRAP_35_5553 (protein)
chain: DFDKEVIEMVRATAEDLLLAVDDLPVDTLITMATQIAELTLKVAKDEKENKEELKELLEATLELLDAVIEKAEKEGAPEEDIEKLRKLKKELEEALKEAE
B28: GBRAP_35_5513 (protein)
chain: SSIDTETEMLVSTLEDATLAVEDLDPETLKKIVESLAELAREFILQNKNDLEALKRVKEELEKLAEALRKRGLDDPLIKEALEKVEEVIKLAEEEIKKIE
B29: GBRAP_150_3890 (protein)
chain: SLEELLTIADTALDILELDIESGGKTIDQTLKVVQALVDEAKNFSPELQKLAEEALKKVEEAKKLKEEGGDQKEIDKLLKEAKKKLEELIKLLEKKIKEK

Chain of GABARAP, O95166 (O95166 whole entry, the tested form may be a part): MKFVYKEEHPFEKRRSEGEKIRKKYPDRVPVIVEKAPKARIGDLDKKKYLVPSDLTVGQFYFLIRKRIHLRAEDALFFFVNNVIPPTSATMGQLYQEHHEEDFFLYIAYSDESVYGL

The test deals with GABARAP, O95166. As to the kind of experiment: median log2 fold change of GCK-ALFA target abundance (FLAG IP / Myc IP barcode read proportion) (log2 ratio); each designed protein is fused to an ALFA-tag nanobody in HEK293 cells to bring the named protein to FLAG-tagged glucokinase (GCK); Myc marks an untargeted standard; higher = target protein stabilised (more abundant). To be noted: target protein: 3xFLAG-MCP-GCK-ALFA reporter; HEK293 landing pad (RPLP). An outline of the steps:
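The readout is target abundance, the per-binder median log2 ratio of FLAG to Myc barcode read proportions. It came from HEK293 landing-pad cells carrying a recombined ALFA-nanobody-fused binder library, induced with 2 μg mL^−1 doxycycline and transfected with a plasmid for a FLAG-tagged target and a Myc-tagged standard. After 48 h, lysates were immunoprecipitated with anti-FLAG and anti-Myc, and circular RNA barcodes were reverse transcribed, amplified and sequenced. Each barcode needed a proportion of at least 10^−7 in both replicates and each binder at least 3 barcodes per replicate, a pseudocount of 10^−6 was added, and the replicates were pooled.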
B1: the “median log2 fold change” value was 0.153.
The same measure for B2: 0.36; for B3: -0.152; for B4: 0.21.
Turning to B5, the “median log2 fold change” value was -0.099.
The same measure for B6: 0.423.
For B7 the value was 0.215; for B8, 0.00785.
The same measure for B9: -0.403; for B10: 0.14.
On to B11, for which the “median log2 fold change” value is -0.172.
For B12 the value was -0.699; for B13, -0.456.
The same measure for B14: 0.23; for B15: -0.253; for B16: 0.393.
For B17, the “median log2 fold change” value is -0.409.
The same measure for B18: 0.0458; for B19: 0.19; for B20: 0.16.
Turning to B21, the “median log2 fold change” value is -0.36.
For B22 the value was 0.142; for B23, 0.297.
For B24 the value was 0.249.
In the case of B25, the “median log2 fold change” value was -0.152.
For B26 the value was -0.0382.
The same measure for B27: -0.742; for B28: 0.222.
For B29 the value was 0.232.
